# Reference: the supplement of paper PMC3334620
# Over roughly 33,000 sequences, “E-score (-0.5 to 0.5)” has its median near -0.013; the highest 2% begin near 0.3. The list shows a part of the results.
# Target: T1, Msn1 (UniProt P22148)
# T1 sequence: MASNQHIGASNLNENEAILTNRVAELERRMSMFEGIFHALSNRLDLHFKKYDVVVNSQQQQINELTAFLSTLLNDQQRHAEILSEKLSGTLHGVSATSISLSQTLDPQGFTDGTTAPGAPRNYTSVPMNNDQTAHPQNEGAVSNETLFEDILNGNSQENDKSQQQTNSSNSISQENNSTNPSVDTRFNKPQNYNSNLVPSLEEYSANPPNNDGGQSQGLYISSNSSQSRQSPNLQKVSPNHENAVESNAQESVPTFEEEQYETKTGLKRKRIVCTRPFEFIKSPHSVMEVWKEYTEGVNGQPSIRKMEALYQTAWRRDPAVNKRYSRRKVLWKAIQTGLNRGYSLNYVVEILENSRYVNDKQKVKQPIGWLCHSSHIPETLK
# Test: PBM E-score (8-mer binding enrichment) (E-score (-0.5 to 0.5)); higher = stronger / more preferred TF binding; most listed sequences are background and not binding sites
# Conditions: protein concentration: 200 nM; construct: GST-full length
# In short: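 Using PURExpress in vitro transcription/translation, GST-tagged yeast transcription factors were made in full-length or DNA-binding-domain form. These were applied at about 100-200 nM to double-stranded universal all-10-mer Agilent arrays, and bound protein was detected with fluorescent anti-GST. Scans were normalised with masliner before the Universal PBM Analysis Suite assigned E-scores to ungapped eight-base words pooled with their reverse complements.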
row,Sequence,PBM E-score
1,ACACACAA,0.0857
2,AGCTGAGG,-0.105
3,CGAGGACC,-0.14
4,CCGGTTCG,-0.0144
5,CGAGCGCC,-0.146
6,GATGCAGA,-0.0332
7,CCTGAACG,-0.104
8,CTAACGAG,-0.0971
9,CCAACCGA,0.115
10,AGGCCCCA,-0.245
11,CACTAGAC,-0.0823
12,AGCTCACA,-0.111
13,ACTGCTAA,-0.122
14,ATAGTGCA,0.0246
15,GGATCCTA,-0.128
16,CCATCCAG,-0.254
17,CTCGCGGA,0.0586
18,AAATAGCA,-0.00406
19,GACATTGA,0.386
20,ATTTCCAA,0.0478
21,AGCTTTAT,-0.0293
22,AGCCATGC,-0.112
23,AACTTAGA,0.153
24,AGATGGGG,-0.336
25,ACGAGCGT,-0.173

row,Sequence,PBM E-score
1,CGTCTGGA,-0.0916
2,AGGACTTG,0.269
3,GCGAAGGA,-0.217
4,GTATAGGA,0.00436
5,AAGTTCCC,-0.153
6,GCCCCAGC,-0.259
7,CACCTTCC,-0.0904
8,TGCTGCCA,-0.196
9,CCCATCAA,0.0357
10,AAAGTCTA,0.268
11,ATTCCACA,0.0598
12,GAGAACAA,0.0874
13,ACTGACGC,-0.164
14,ACGTAGAA,-0.0507
15,TGAATCAA,0.0824
16,ATCATCTC,0.022
17,AAACACCA,-0.0266
18,GTTCAACA,0.104
19,AGTTTCCG,0.0551
20,CAGTCTAG,-0.155
21,ATTGGGCA,-0.0202
22,ACGGCCCA,-0.304
23,ATCGCTGG,-0.122
24,CTAGGTCA,-0.0235
25,GGTTCCAC,-0.185

row,Sequence,PBM E-score
1,CGCCCGGA,-0.0187
2,AATCGGCG,-0.0561
3,TAAGGTCA,-0.0968
4,CCATAAGG,-0.153
5,ACGTCGCT,-0.211
6,CACTGCAA,-0.0467
7,CCTGTCAG,-0.0618
8,AAGTAGCA,-0.123
9,ACTGCGCC,-0.163
10,ATGGAACC,-0.0583
11,AGGATTTC,-0.136
12,ACGGGTCT,-0.309
13,CGAATAGC,0.0726
14,AAAATACA,0.097
15,GAAGGGCA,-0.146
16,CAGTCACC,-0.109
17,AGACAGGG,-0.0575
18,ACAACTTA,0.0165
19,ATAACAAA,0.164
20,ACCTTGTG,-0.0531
21,GTCCGTTA,0.21
22,AGCCTGTG,-0.221
23,GACTTTAA,0.198
24,CACTGCCG,0.0826
25,ATCTCTAC,-0.0664

row,Sequence,PBM E-score
1,CCCCCACG,-0.189
2,GTCATGCA,0.0643
3,ACATCGGA,0.123
4,CTTCCTGC,-0.287
5,CAGTGCTA,0.0231
6,AAATTAAG,0.0473
7,AGTTATTA,0.0736
8,CTATAACC,-0.0603
9,CCATGCGG,-0.273
10,GCACGAAC,0.188
11,AGAGCACG,-0.123
12,CCATCTAA,-0.0753
13,GGAATCAC,0.0517
14,AACAACTG,0.161
15,GATAAGGA,0.0875
16,GGAAATGA,0.172
17,AACACTAA,0.00264
18,CGCTAGCA,0.0276
19,AATCACGT,0.0215
20,ATGTCGGG,0.187
21,CAGATCGA,-0.0136
22,AGGCCGAG,0.068
23,TGGCTGAA,-0.155
24,AGGGGAAC,-0.295
25,ACTTTAGC,-0.0296

row,Sequence,PBM E-score
1,AAGATGCC,-0.229
2,CTCCAAAG,-0.0517
3,AGGTATGG,-0.26
4,CATAAACC,0.122
5,CCTACTCG,-0.163
6,ATGTTGGA,0.265
7,AAAAAACT,-0.00951
8,ATGTCTAC,0.313
9,GATACATC,-0.0118
10,GGTTTTCA,0.15
11,GCTTTCCA,-0.188
12,CGTCCTAA,0.245
13,ATAATGCC,0.0821
14,TACTCTGA,-0.0497
15,CATTTCCC,0.16
16,GCGTGCAC,-0.159
17,TTCTAAAA,0.173
18,GTTAAAAC,-0.0848
19,GACCTAGA,-0.0349
20,CGCGTTAC,0.0906
21,CATAACGG,-0.0245
22,CTAGACAC,0.0417
23,GTAGATTA,0.199
24,TGCAGGAA,0.0458
25,AAAAACCG,0.128

row,Sequence,PBM E-score
1,ATAGGCTA,0.0699
2,CCTAATTC,0.0894
3,TATCTGAA,0.0264
4,CTCGACCC,-0.385
5,AAGACGGA,0.0975
6,AATTTCGA,0.0679
7,ATAGGAGC,-0.0549
8,GAAGAGAA,-0.0958
9,GTTAACAA,0.124
10,AACAGTTC,0.17
11,CTCTTTGC,-0.247
12,CGGTGCAG,-0.187
13,GGACCCCA,-0.187
14,ACCTCTAC,-0.0781
15,CAACTTTC,-0.0177
16,GAGAGGTA,-0.259
17,AATACTTC,0.174
18,CGTAACCC,-0.118
19,CATTGTCC,0.456
20,ACATCGTC,0.0423
21,ACTCGACG,0.116
22,CCTCGGAC,0.238
23,GCCTCCGC,-0.182
24,GTCGCACA,0.0631
25,GCGCCAAA,-0.144

row,Sequence,PBM E-score
1,CCGATTAA,0.15
2,GCCGTCCC,-0.22
3,CATATGGG,-0.137
4,AGTAAACG,0.00772
5,CAAATCAC,-0.028
6,AGATGCCT,-0.0381
7,CGATGAAA,0.143
8,AGCAGGTC,0.0183
9,AGACTGCA,-0.174
10,ATCACTCG,-0.0696
11,CCAGGATC,-0.0775
12,GTTTTAGA,0.109
13,CCTAAAGG,-0.11
14,AGCTGCAG,-0.0954
15,CATCTGTC,0.0441
16,CCCAAATC,-0.12
17,CCAGTCCA,-0.369
18,AACAGGAA,0.123
19,ATGTTAGA,-0.043
20,CTATTATA,0.102
21,CCACTACC,-0.136
22,GGAGCGCC,-0.304
